The text below walks through data of PubChem BioAssay (NCI).

Structures are written as SMILES.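 1) Cells in 96-well plates. 2) Compound, 48 h, 5 concentrations. 3) Linear interpolation between surrounding doses. 4) Unreached endpoint = highest concentration. GI50 = concentration required for 50% inhibition of growth. TGI is the concentration that stops growth completely.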

The subject of the test is NCI-H322M lung. Kind of test: NCI tumour cell line growth inhibition, 48 h.

Regarding `Cn1cc(-c2cc(N)n3nc(-c4c[nH]c5ccccc45)cc3n2)c2cc(Br)cnc21`, the GI50 was 2.86 µM and the TGI was 13.6 µM.

With `COc1ccc(-c2nc3cc(C)ccc3n2CC(=O)N=Nc2c(O)[nH]c3ccc(OC)cc23)cc1`, the GI50 was 3.8 µM and the TGI was found to be 15 µM.
